Test results published in the supplement of paper PMC8728848.
The other results are listed elsewhere or left out.

What was measured:
Test in all cases: glycan array binding signal (z-score within array); higher = stronger binding
Settings in all cases: glycan notation: IUPAC condensed, linker removed
[1] = target: Fuc(a1-2)[GalNAc(b1-3)]Gal
How it was run: (§1)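 Arrays were curated from the Consortium for Functional Glycomics database, 3228 in total, and kept only where the protein sequence was available. Binding is expressed as a within-array Z-score. This score was averaged across arrays of the same protein sequence at different concentrations or buffers and across linkers, and negative values can be read as non-binding.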

[2] = target: Fuc(a1-3)GlcNAc
How it was run: as §1

[3] = target: Fuc(a1-3)[Gal(b1-4)]Glc6S
How it was run: as §1

[4] = target: Fuc(a1-3)[Gal(b1-4)]GlcNAc
How it was run: as §1

[5] = target: Fuc(a1-3)[Gal(b1-4)]GlcNAc(b1-2)Man
How it was run: as §1

[6] = target: Fuc(a1-3)[Gal(b1-4)]GlcNAc(b1-2)Man(a1-3)[Fuc(a1-3)[Gal(b1-4)]GlcNAc(b1-2)Man(a1-6)]Man(b1-4)GlcNAc(b1-4)GlcNAc
How it was run: as §1

[7] = target: Fuc(a1-3)[Gal(b1-4)]GlcNAc(b1-2)Man(a1-3)[Fuc(a1-3)[Gal(b1-4)]GlcNAc(b1-2)Man(a1-6)]Man(b1-4)GlcNAc(b1-4)[Fuc(a1-6)]GlcNAc
How it was run: as §1

[8] = target: Fuc(a1-3)[Gal(b1-4)]GlcNAc(b1-3)Gal(b1-3)[Fuc(a1-4)]GlcNAc
How it was run: as §1

[9] = target: Fuc(a1-3)[Gal(b1-4)]GlcNAc(b1-3)Gal(b1-4)[Fuc(a1-3)]GlcNAc
How it was run: as §1

[10] = target: Fuc(a1-3)[Gal(b1-4)]GlcNAc(b1-3)Gal(b1-4)[Fuc(a1-3)]GlcNAc(b1-3)Gal(b1-4)[Fuc(a1-3)]GlcNAc
How it was run: as §1

[11] = target: Fuc(a1-3)[Gal(b1-4)]GlcNAc(b1-3)GalNAc
How it was run: as §1

[12] = target: Fuc(a1-3)[Gal(b1-4)]GlcNAc(b1-6)GalNAc
How it was run: as §1

[13] = target: Fuc(a1-3)[Gal(b1-4)]GlcNAc(b1-6)[Gal(b1-3)GlcNAc(b1-3)]Gal(b1-4)Glc
How it was run: as §1

[14] = target: Fuc(a1-3)[Gal(b1-4)]GlcNAc6S
How it was run: as §1

[15] = target: Fuc(a1-3)[Gal3S(b1-4)]Glc
How it was run: as §1

[16] = target: Fuc(a1-3)[Gal3S(b1-4)]GlcNAc
How it was run: as §1

[17] = target: Fuc(a1-3)[Gal3S(b1-4)]GlcNAc6S
How it was run: as §1

[18] = target: Fuc(a1-3)[GalNAc(b1-4)]GlcNAc
How it was run: as §1

[19] = target: Fuc(a1-3)[GalNAc(b1-4)]GlcNAc6S
How it was run: as §1

[20] = target: Fuc(a1-4)GlcNAc
How it was run: as §1

[21] = target: Fuc(b1-3)GlcNAc
How it was run: as §1

[22] = target: Gal(a1-2)Gal
How it was run: as §1

[23] = target: Gal(a1-3)Gal
How it was run: as §1

[24] = target: Gal(a1-3)Gal(b1-3)GlcNAc
How it was run: as §1

[25] = target: Gal(a1-3)Gal(b1-3)GlcNAc(b1-2)Man
How it was run: as §1

[26] = target: Gal(a1-3)Gal(b1-3)GlcNAc(b1-2)Man(a1-3)[Gal(a1-3)Gal(b1-3)GlcNAc(b1-2)Man(a1-6)]Man(b1-4)GlcNAc(b1-4)GlcNAc
How it was run: as §1

[27] = target: Gal(a1-3)Gal(b1-3)GlcNAc(b1-3)GalNAc
How it was run: as §1

[28] = target: Gal(a1-3)Gal(b1-3)GlcNAc(b1-6)GalNAc
How it was run: as §1

[29] = target: Gal(a1-3)Gal(b1-3)[Fuc(a1-4)]GlcNAc(b1-2)Man(a1-3)[Gal(a1-3)Gal(b1-3)[Fuc(a1-4)]GlcNAc(b1-2)Man(a1-6)]Man(b1-4)GlcNAc(b1-4)GlcNAc
How it was run: as §1

[30] = target: Gal(a1-3)Gal(b1-4)Glc
How it was run: as §1

B1: MSMEG3662-2a (Mycobacterium smegmatis), A0QYH7_MYCS2 (protein)
chain: MGDTLTAGQKLERGGSLQSGNGAYTLTLQDDGNLVLYARDKAVWSTGTNGQDVVRAEVQTDGNFVLYTAEKPVWHTDTKGKKEVKLVLQDDRNLVLYAKDGPAWSSKTDTTEPPPPAPEPEKEAEVAPAAAEEAAPAPVAEPAPAEPAPAAPPPAPPAPRTYTVVSGDTLWAIAERFYGDGSKYQQIADASGIANPDLIHPGQVLTIP
Which “glycan array binding signal (z-score)” value [1] does the source give for B1 here?
The value was -0.143.

What about the “glycan array binding signal (z-score)” value [2] of the same binder?
The value was -0.066.

And the “glycan array binding signal (z-score)” value [3]?
Its value is -0.126.

And the “glycan array binding signal (z-score)” value [4]?
The value was -0.042.

What about the “glycan array binding signal (z-score)” value [5] of the same binder?
Its value is -0.036.

What about the “glycan array binding signal (z-score)” value [6] of the same binder?
The value was 0.087.

What about the “glycan array binding signal (z-score)” value [7] of the same binder?
The value was -0.103.

What about the “glycan array binding signal (z-score)” value [8] of the same binder?
Its value is -0.188.

And the “glycan array binding signal (z-score)” value [9]?
Its value is 0.074.

What about the “glycan array binding signal (z-score)” value [10] of the same binder?
The value was -0.178.

And the “glycan array binding signal (z-score)” value [11]?
The value was -0.161.

What about the “glycan array binding signal (z-score)” value [12] of the same binder?
The value was 0.055.

What about the “glycan array binding signal (z-score)” value [13] of the same binder?
The value was -0.214.

And the “glycan array binding signal (z-score)” value [14]?
The value was 0.036.

What about the “glycan array binding signal (z-score)” value [15] of the same binder?
Its value is 0.023.

What about the “glycan array binding signal (z-score)” value [16] of the same binder?
Its value is -0.028.

And the “glycan array binding signal (z-score)” value [17]?
The value was -0.129.

And the “glycan array binding signal (z-score)” value [18]?
The value was 0.413.

And the “glycan array binding signal (z-score)” value [19]?
Its value is -0.173.

What about the “glycan array binding signal (z-score)” value [20] of the same binder?
Its value is 11.1.

What about the “glycan array binding signal (z-score)” value [21] of the same binder?
The value was -0.062.

And the “glycan array binding signal (z-score)” value [22]?
The value was -0.085.

And the “glycan array binding signal (z-score)” value [23]?
The value was -0.03.

And the “glycan array binding signal (z-score)” value [24]?
Its value is 0.059.

What about the “glycan array binding signal (z-score)” value [25] of the same binder?
Its value is -0.093.

What about the “glycan array binding signal (z-score)” value [26] of the same binder?
Its value is -0.109.

What about the “glycan array binding signal (z-score)” value [27] of the same binder?
Its value is -0.226.

What about the “glycan array binding signal (z-score)” value [28] of the same binder?
Its value is -0.085.

What about the “glycan array binding signal (z-score)” value [29] of the same binder?
Its value is -0.073.

And the “glycan array binding signal (z-score)” value [30]?
The value was -0.133.
